One assay has as its system HSkMC. The assay is described as follows: cytotoxicity call (relative viability < 0.9). The conditions noted are these: 10 µM.
The next assay deals with HepG2. The assay is described as follows: cytotoxicity call (relative viability < 0.9). As to conditions: 10 µM.
In a further assay the test system is S. aureus RN4220. As to the kind of experiment: growth inhibition call (relative growth <= 0.2). As to conditions: 50 µM.

Some of the results follow.

With `COc1ccc2c3c([nH]c2c1)[C@@H](CO)N(C[C@]13CCN(CC1)C(=O)c1ccccc1F)C(=O)Nc1ccccc1F`, the cytotoxicity call in the assay on HSkMC and in the assay on HepG2 was “inactive” throughout. For the same compound, the growth inhibition call in the assay on S. aureus RN4220 was “inactive”.
Regarding `OCc1ccc(O)cc1`, the cytotoxicity call with HSkMC and with HepG2 was “inactive” in each case. In addition, the growth inhibition call in the assay on S. aureus RN4220 is “inactive”.
Take `C[C@H]1CCCCO[C@@H](CN(C)C(=O)c2ccncc2)[C@@H](C)CN([C@@H](C)CO)C(=O)c2cc(NS(=O)(=O)c3cn(C)cn3)ccc2O1`: the cytotoxicity call with HSkMC and with HepG2 was “inactive” each time. For the same compound, the growth inhibition call with S. aureus RN4220 was “inactive”.
`C[C@H](CO)N1C[C@H](C)[C@H](CN(C)C(=O)C2CCCCC2)Oc2ncc(C#CC3(O)CCCC3)cc2C1=O`: the cytotoxicity call with HSkMC and with HepG2 was “inactive” in each case. The growth inhibition call in the assay with S. aureus RN4220 is “inactive”.
On to `COCCNC(=O)C[C@@H]1CC[C@H]2[C@@H](COC[C@H](O)CN2C(=O)Nc2ccc3c(c2)OCO3)O1`, for which the cytotoxicity call in the assay with HSkMC and in the assay with HepG2 was “inactive” in each case. Also, the growth inhibition call in the assay on S. aureus RN4220 was “inactive”.
For the compound `C[C@H]1CN([C@@H](C)CO)C(=O)c2cccc(NC(=O)c3nc4ccccc4s3)c2O[C@H]1CN(C)Cc1ccc(C(F)(F)F)cc1`, the cytotoxicity call with HSkMC and with HepG2 was “inactive” throughout. Besides, the growth inhibition call in the assay with S. aureus RN4220 was “inactive”.
On to `C[C@@H]1CN([C@@H](C)CO)C(=O)Cc2cc(NC(=O)Cn3cnnn3)ccc2O[C@@H]1CN(C)S(=O)(=O)c1cccs1`, for which the cytotoxicity call in the assay on HSkMC and in the assay with HepG2 was “inactive” each time. In addition, in the assay with S. aureus RN4220, the growth inhibition call is “inactive”.
In the case of `C=CCOC(=O)[C@@H]1[C@H]2C(=O)O[C@H](c3ccccc3)[C@H](c3ccccc3)N2[C@H](c2ccc(OCCOC(=O)[C@H]3C[C@H]4C(=O)N[C@@H](CCCCNC(C)=O)C(=O)N4[C@H]3c3ccc(O)cc3)cc2)[C@@]12C(=O)Nc1ccc(I)cc12`, the cytotoxicity call in the assay with HSkMC and in the assay on HepG2 was “inactive” in each case. Moreover, the growth inhibition call in the assay on S. aureus RN4220 is “inactive”.
For `CCNC(=O)C[C@@H]1CC[C@@H]2[C@H](COc3ccc(NS(=O)(=O)c4ccccc4C)cc3C(=O)N2C)O1`, the cytotoxicity call in the assay with HSkMC and with HepG2 was “inactive” throughout. Besides, in the assay with S. aureus RN4220, the growth inhibition call is “inactive”.
Consider `C[C@@H]1CN([C@@H](C)CO)C(=O)CCCn2nncc2CO[C@@H]1CN(C)Cc1ccc2c(c1)OCCN2C`, for which the cytotoxicity call in the assay with HSkMC and in the assay on HepG2 was “inactive” each time. Also, the growth inhibition call in the assay on S. aureus RN4220 is “inactive”.
In the case of `C[C@H](CO)N1C[C@H](C)[C@@H](CN(C)C(=O)c2ccccc2)OCCCC[C@H](C)Oc2ccc(NC(=O)c3ccccc3)cc2C1=O`, the cytotoxicity call with HSkMC and in the assay with HepG2 was “inactive” in each case. Besides, in the assay with S. aureus RN4220, the growth inhibition call was “inactive”.
For `C[C@@H]1CN([C@@H](C)CO)C(=O)c2cc(NC(=O)CCC(F)(F)F)ccc2O[C@@H](C)CCCCO[C@@H]1CN(C)Cc1ccc(C(=O)O)cc1`, the cytotoxicity call in the assay on HSkMC and in the assay with HepG2 was “inactive” throughout. The growth inhibition call in the assay on S. aureus RN4220 is “inactive”.
`Cc1cn(CC(=O)NCCN)c(=O)[nH]c1=O`: the cytotoxicity call in the assay on HSkMC and in the assay with HepG2 was “inactive” in each case. For the same compound, the growth inhibition call in the assay with S. aureus RN4220 is “inactive”.
As to `C[C@H](CO)N1C[C@H](C)[C@@H](CN(C)C(=O)Cc2ccccc2)OCCCC[C@H](C)Oc2ccc(NC(=O)Nc3cccc4ccccc34)cc2C1=O`, the cytotoxicity call in the assay on HSkMC and in the assay with HepG2 was “inactive” each time. Further, the growth inhibition call with S. aureus RN4220 is “inactive”.
As for `C[C@H](CO)N1C[C@H](C)[C@@H](CN(C)CC2CC2)OCCCC[C@H](C)Oc2ccc(NC(=O)CCC(F)(F)F)cc2C1=O`, the cytotoxicity call in the assay on HSkMC and in the assay with HepG2 was “inactive” each time. Further, the growth inhibition call with S. aureus RN4220 is “inactive”.
Turning to `COc1ccccc1CNC(=O)C[C@H]1C[C@H]2c3cc(NS(=O)(=O)c4ccc(F)cc4)ccc3O[C@H]2[C@@H](CO)O1`, the cytotoxicity call with HSkMC and with HepG2 was “inactive” each time. Also, in the assay with S. aureus RN4220, the growth inhibition call is “inactive”.
As to `Cc1cccc(N[C@H]2CS(=O)(=O)C[C@@H]2O)c1`, the cytotoxicity call in the assay with HSkMC and in the assay with HepG2 was “inactive” throughout. For the same compound, the growth inhibition call in the assay on S. aureus RN4220 was “inactive”.
Consider `Cc1noc(C)c1S(=O)(=O)Nc1ccc2c(c1)CC(=O)N([C@H](C)CO)C[C@H](C)[C@@H](CN(C)Cc1ccc(C(=O)O)cc1)O2`, for which the cytotoxicity call in the assay on HSkMC and with HepG2 was “inactive” in each case. Besides, the growth inhibition call with S. aureus RN4220 was “inactive”.
Consider `C[C@@H]1CCCCO[C@@H](CN(C)C(=O)Nc2ccccc2)[C@@H](C)CN([C@@H](C)CO)C(=O)c2cc(NC(=O)Nc3ccc(F)cc3)ccc2O1`, for which the cytotoxicity call with HSkMC and in the assay on HepG2 was “inactive” in each case. Also, in the assay on S. aureus RN4220, the growth inhibition call was “inactive”.
On to `C[C@H]1CN([C@@H](C)CO)C(=O)c2cc(NC(=O)Nc3ccc(F)cc3)ccc2O[C@H]1CN(C)Cc1ccc(C(=O)Nc2ccccc2N)cc1`, for which the cytotoxicity call in the assay on HSkMC and in the assay with HepG2 was “inactive” throughout. Also, the growth inhibition call in the assay on S. aureus RN4220 is “inactive”.
As to `COc1ccc(S(=O)(=O)Nc2ccc3c(c2)CC(=O)N([C@H](C)CO)C[C@H](C)[C@H](CN(C)Cc2ccc(Cl)c(Cl)c2)O3)cc1`, the cytotoxicity call in the assay with HSkMC and in the assay on HepG2 was “active” each time. For the same compound, the growth inhibition call in the assay on S. aureus RN4220 is “inactive”.
Turning to `CCCCC(CC)COC(=O)c1ccccc1O` (stereo not given), the cytotoxicity call in the assay on HSkMC and in the assay on HepG2 was “inactive” each time. For the same compound, the growth inhibition call in the assay with S. aureus RN4220 is “inactive”.
Regarding `CCCN(C)C[C@H]1OCCCC[C@@H](C)Oc2ccc(NS(=O)(=O)c3cn(C)cn3)cc2C(=O)N([C@H](C)CO)C[C@@H]1C`, the cytotoxicity call in the assay on HSkMC (human skeletal muscle cells) and with HepG2 was “inactive” throughout. The growth inhibition call in the assay with S. aureus RN4220 was “inactive”.
For the compound `CCn1cc(C(=O)O)c(=O)c2cnc(N3CCCC3)nc21`, the cytotoxicity call in the assay with HSkMC and in the assay with HepG2 was “inactive” throughout. Also, in the assay with S. aureus RN4220, the growth inhibition call was “inactive”.
Consider `O=C(O[C@@H]1O[C@@H]2COC(=O)c3cc(Oc4c(C(=O)O)cc(O)c(O)c4O)c(O)c(O)c3-c3c(cc(O)c(O)c3O)C(=O)O[C@H]2[C@H](OC(=O)c2cc(O)c(O)c(O)c2)[C@H]1OC(=O)c1cc(O)c(O)c(O)c1)c1cc(O)c(O)c(O)c1`, for which the cytotoxicity call with HSkMC and in the assay on HepG2 was “inactive” throughout. Moreover, the growth inhibition call with S. aureus RN4220 was “inactive”.
